In all, about 150,000 compounds went through this assay and about 540 (0.36%) showed an effect of 50% or more. Some of the results follow.
The molecules below were run on Plasmodium falciparum (assay: Primary screen in NF54 nanoGlo assay, in single point, at 2uM, 72h; a lower Z score goes with more inhibition). Conditions: timepoint 72 hour.
Type: functional, Erythrocyte

SMILES | % Inhibition | Z score
O=C1CN(C(=O)[C@H]2CCC(=O)N(C3CCCC3)C2)CCN1Cc1cccc(F)c1 | -12% | 1.55
O=C(C1CCC(O)CC1)N1CCCCC[C@H]1C=Cc1ccccc1 (stereo partly drawn) | -4% | 0.69
CC(C)Cn1ncc(Nc2ncnc3[nH]ccc23)c1C1CC1 | 25% | -3.19
CCn1c(CO)nnc1[C@H]1C[C@H](NC(=O)c2ccc3cc[nH]c3c2)C1 | -21% | 3.99
CN([C@H]1CCS(=O)(=O)C1)S(=O)(=O)c1cccc2c1N=S=N2 | -10% | 1.19
CN(C(=O)N[C@H]1CC(=O)N(c2ccccc2)C1)C1CCCCC1 | 22% | -2.77
CCCN1CCN(S(=O)(=O)c2cccc(OC)c2)[C@H]2CS(=O)(=O)C[C@H]21 | -1% | 0.1
CC1CCN(C(=O)CON=C(N)c2ccccc2CN2CCCCC2)CC1 | -13% | 1.46
O=C(NCCC1=CCCCC1)c1ccc2cc(-c3ccccc3)[nH]c2c1 | -5% | 0.88
CC1CCN(C(=O)NCC2CCC(F)(F)CC2)CC1n1ccnc1 (stereo not drawn) | 39% | -5.63
Cc1ccc(C)c(CN2CCN(Cc3ccccn3)[C@H]3CS(=O)(=O)C[C@H]32)c1 | 1% | -0.13
CC[C@H]1CCCCN1C(=O)NCC1CCC2(CC1)OCCO2 | -16% | 2.02
N#Cc1ccc([C@H]2CC(=O)Nc3c2cnn3Cc2cccs2)cc1 | -6% | 1.15
CCOC[C@@H](O)CNC(=O)C1CCN(C(=O)CC)CC1 | -1% | 0.15
NC(=O)c1ccc(CN2CCN(S(=O)(=O)c3ccc4c(c3)CCCC4)CC2)cc1 | 2% | -0.23
CN1C(=O)CC[C@@]12CCN(C(=O)Nc1ccccc1C(F)(F)F)C2 | -4% | 0.53
CC(C)(C)NC(=O)Cn1cnc(C#N)n1 | 0% | -0.02
COc1cccc(CN2CCC[C@H]2c2nn(C)c3c2COCC3)n1 | -2% | 0.18
CC(=O)N1CCc2c(c3ccccc3n2C)C1 | 7% | -0.94
CN(CCc1noc(C2CN(CC3CCCCC3)C2)n1)C(=O)C1CCOCC1 | 3% | -0.41
O=C(NCc1ccc(C(=O)N2CCOCC2)cc1)c1ccc2c(c1)OCO2 | -6% | 1.18
Cc1cc(Cl)ccc1OCc1nc(-c2ccc3c(c2)nnn3CCC(=O)N2CCCC2)no1 | -12% | 1.56
C[C@H](NC1Cc2ccccc2C1)c1nnc(N)s1 | -14% | 1.81
c1ncc(-c2cnn3c2OCCC3)s1 | 4% | -0.57
COc1ccc(Oc2c(CN(CC3CC3)C(=O)c3ccccc3)c(-c3ccccc3)nn2C)cc1 | 32% | -0.44
O=C(Nc1ccc2c(c1)OCO2)c1nnc(C(=O)N2CCC[C@H](C(=O)NCCN3CCCC3)C2)s1 | -28% | 2.51
CCc1ccc(NC(=O)c2nnc(CN(CC(C)(C)O)C(C)C)s2)cc1 | -5% | 0.57

SMILES | % Inhibition | Z score
O=C(Nc1ccon1)N1CCC[C@@H]1CCC1CCCCC1 | -23% | 3.21
COC1(OC)CCCC[C@@H]1NC(=O)OC1CCC1 | -12% | 1.3
Cn1nccc1C(=O)N1CCC[C@H]1c1nc(-c2ccc(F)cc2F)no1 | -11% | 1.62
CCN1CCCC(NC2CCc3ncnn3C2)c2ccccc21 (stereo not drawn) | -1% | 0.15
CC(=O)c1c(F)cccc1N1CCN(S(C)(=O)=O)[C@@H](C)C1 | -10% | 1.33
Cc1ccccc1CS(=O)(=O)N1CC(CO)C1 | -6% | 0.67
CCn1cc(C)c(C(=O)O)c1CC(=O)Nc1ccc(F)cc1 | -11% | 1.4
Cc1nc(CCCC(=O)N(C)S(=O)(=O)C(C)C)cs1 | 5% | -0.7
CC(=O)NC(C)(COc1nonc1C)COc1nonc1C | 0% | 0
CC1CCN(C[C@@H](O)CNC(=O)C2CCCCCC2)CC1 | 0% | 0.02
CCOc1cccc(CC(=O)N2C[C@H](Cc3ccccc3)[C@@H](O)C2)n1 | 1% | -0.17
CC(C)(C)c1nc(CN2C[C@@H]3[C@H](C2)[C@H]2CC[C@@H]3O2)no1 | 1% | -0.17
CCCn1ncc(CN(CCOC)CC2CCN(Cc3ccccc3OC)CC2)c1C | -9% | 1.05
CN1c2cc(C(=O)NCc3ccccc3)ccc2C(=O)N2CCCCC[C@H]21 | 0% | -0.01
COc1cc(F)cc(F)c1S(=O)(=O)NCCc1cnoc1 | -20% | 2.01
Cc1ccc(NS(=O)(=O)c2cc(-c3cc(C(F)(F)F)on3)ccc2C)cc1C | 1% | -0.18
O=C(C1CC1c1ccco1)N1CCN(c2ccccn2)CC1 (stereo not drawn) | -1% | 0.06
C[C@@]1(C(=O)NCc2ccc(F)cc2)CN(S(=O)(=O)c2ccccc2)CC(=O)N1C1CC1 | 4% | -0.76
Cc1nonc1CC(=O)N1CCC[C@]1(C)Cc1ccc(Cl)s1 | 3% | -0.31
C1=C([C@]23CCCN(Cc4ncc[nH]4)[C@@H]2CCOC3)CCOC1 | 3% | -0.48
CCn1cnnc1CN(C)CCN1CCN(c2ccccc2)CC1 | -14% | 2.46
Cc1nn(C)c(C)c1CNC[C@@H]1CCO[C@H]1c1ccc(F)cc1 | -13% | 1.23
COC(=O)C1(NCc2coc(-c3c(F)cccc3F)n2)CCC1 | -10% | 1.05
CC(NC(=O)c1cc2c(s1)CCCCCC2)C1CCCO1 (stereo not drawn) | -15% | 1.38
Cc1cccc(O)c1NC(=O)c1cccn2c(Cc3ccccc3)nnc12 | 0% | -0.06
CS(=O)(=O)CCC(=O)N1CCCc2sccc2C1 | -17% | 1.53
Cc1ccncc1C(=O)N1CCNC[C@H]1C(=O)N1CCCC1 | -7% | 0.81
